# Measured values from the supplement of paper PMC3334620.
# In all, about 33,000 sequences were measured (“E-score (-0.5 to 0.5)”: median about -0.056, highest 2% from about 0.38 on). This is one part of the list.
# Molecular target: Stb4 (UniProt P50104)
# Assay: PBM E-score (8-mer binding enrichment) (E-score (-0.5 to 0.5)); higher = stronger / more preferred TF binding; most listed sequences are background and not binding sites
# Details: protein concentration: 200 nM; construct: GST-DNA-binding domain
# Method: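 Universal 'all 10-mer' protein binding microarrays (Agilent AMADID 015681) probed with GST-tagged S. cerevisiae TFs (full-length or DBD) made by in vitro transcription/translation (PURExpress), about 100-200 nM. Bound TF was detected with fluorescent anti-GST. Each ungapped 8-mer (which stands for itself and its reverse complement) is scored by the PBM enrichment score (E-score), a modified Wilcoxon-Mann-Whitney statistic from -0.5 to +0.5, computed with the Universal PBM Analysis Suite. Scale: above 0.35 generally sequence-specific binding.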
row,Sequence,PBM E-score
1,CGTCTATA,0.0382
2,CACGACCC,-0.0646
3,GCGTAGAA,0.0936
4,ACTGTGTG,-0.0688
5,ATTTTTAC,-0.0304
6,AACCTAGT,-0.074
7,CCGTCGAC,0.0646
8,GCTGATAC,-0.157
9,CCCCAGGA,-0.239
10,AATGACCG,0.125
11,ATCTGCTA,-0.3
12,GTGGTAGA,-0.129
13,AATGCGCG,0.259
14,ACACGCCT,-0.299
15,CTCGCGCA,0.0769
16,AGAAGCTA,0.0103
17,CAAGGCGG,0.0285
18,ACGTTGAC,-0.201
19,AATGGCAC,0.0162
20,GCAGGTAA,0.114
21,GTCCCCAA,-0.231
22,ATACCCAA,-0.0395
23,ATGAACCG,0.129
24,ACGAAAGC,-0.112
25,AATCGTCG,0.121

row,Sequence,PBM E-score
1,ACCTTAAG,-0.0705
2,CCCCGAAA,0.34
3,TAATCACA,-0.14
4,ACCGGTGG,0.0186
5,CCACAGAC,-0.261
6,GGACTCAC,-0.0454
7,GAGGTCAC,-0.096
8,CGACCCCC,-0.0261
9,GTCAATCA,-0.187
10,AATGAGCC,-0.021
11,AAATGTCT,-0.0741
12,ATCTTCCC,0.226
13,CCAAGATC,-0.0491
14,AACCGATG,0.222
15,GCCCGACA,0.187
16,ACGATGAC,-0.046
17,CGCGTCCG,0.06
18,AACGGTGG,-0.23
19,CATAAGAG,-0.0847
20,AGAAGCTC,-0.0652
21,GGAGTGCC,0.138
22,AGAGAGGG,-0.219
23,CATGCAGC,-0.251
24,AAAGCTGC,-0.0187
25,ATGCCTCG,0.0515

row,Sequence,PBM E-score
1,ACCGGGCA,0.165
2,GATGATTA,-0.0207
3,CGTCCGCA,0.0032
4,ACGTTTCC,0.0785
5,CGCTCCAA,-0.0489
6,CGGAGTTA,0.331
7,GTTCTAAA,0.0362
8,TCGAGGAA,-0.13
9,GCCTACAA,-0.00479
10,AACACTTG,-0.0822
11,CCCCGAGA,0.326
12,ACTGCACG,-0.0401
13,CGCTCGTC,-0.19
14,CTAAAAGA,-0.279
15,ATCCGATC,0.428
16,TATATTGA,0.0944
17,ACAACATC,0.00997
18,GCTTATCA,-0.119
19,AATAACGC,-0.202
20,GGTGAACC,0.0847
21,CCCCGATA,0.145
22,CTCGTGGC,-0.0619
23,AGTCTATC,-0.0666
24,CCCTTAAG,-0.0177
25,AGTTAGAA,0.128

row,Sequence,PBM E-score
1,CCGGTGTA,0.211
2,CCTAAGTA,-0.0289
3,AACGGCCT,-0.0804
4,CACACTTA,-0.00541
5,GAGGAGTA,-0.00803
6,GCAACGTA,-0.231
7,AGTGGCTG,-0.055
8,AGGCCTGA,-0.12
9,CGATCCAA,-0.122
10,ATCGAATG,-0.251
11,CTATGTAA,-0.228
12,AGCACTAT,-0.195
13,TAGGTGGA,-0.279
14,CCATATAG,-0.082
15,GGATCATA,0.228
16,AAATATAC,0.00214
17,AACTAGTT,-0.162
18,GTTCTCCA,-0.108
19,CGACCAAA,0.149
20,CGTATGGA,-0.0248
21,ACTCGTAC,-0.0691
22,GGCTAACA,0.057
23,CCAACTGG,-0.253
24,ATTAACTA,-0.191
25,ATACCGAC,0.167

row,Sequence,PBM E-score
1,ATTAATGG,0.0395
2,ATATACCA,-0.153
3,GCTGAGTA,-0.26
4,ATGTCTAA,-0.225
5,AGTGATAC,-0.167
6,GAACAGGA,-0.0169
7,CAAGTTGC,0.035
8,CCTCCACA,-0.208
9,GTGCCTTA,-0.136
10,AGTACCTC,-0.124
11,GTTTAACA,-0.0992
12,ACGTTAGA,-0.0864
13,CAGACGAC,-0.289
14,CAAACGCC,-0.0471
15,AAGTCACA,-0.153
16,GGTTCCCA,-0.0962
17,GGAATGAC,0.107
18,CGCCGTTA,0.0411
19,AAATCAGT,0.0784
20,ATTGGAGC,-0.113
21,GTCACGAC,-0.0624
22,ATAACCAC,0.0174
23,CCCAACAG,-0.222
24,ACTCTTAG,-0.232
25,GATCTCCA,-0.133

row,Sequence,PBM E-score
1,GAACCAAC,-0.0243
2,ATCCGCCA,0.324
3,GATATCGA,-0.107
4,ACGTTCAT,-0.283
5,GACACCCA,-0.154
6,GGGCCAGA,-0.0162
7,AAGAATCT,-0.0901
8,GGCTTCCC,0.143
9,AGGTCGAT,0.0379
10,GATACGAC,-0.14
11,AAGCCTCA,-0.0973
12,TCTCCTAA,-0.31
13,AACAGCGC,-0.133
14,GGTTCCAA,0.196
15,ACAACTAG,0.0102
16,TACTTCGA,0.0368
17,ACGTAAAC,-0.0878
18,AAACCGTC,0.118
19,AATGCTAT,-0.157
20,GGGCTAGA,0.00508
21,ACTCCTCC,0.166
22,AGGCATGA,-0.112
23,TCGAAAAA,-0.00854
24,ACCGACTA,0.139
25,AGCTGCAA,-0.0718

row,Sequence,PBM E-score
1,GACCCCGA,0.288
2,GGGTGGAC,0.11
3,CGATTTGA,-0.0548
4,GAACTCCC,0.174
5,ACTTTATC,0.0704
6,GGGCCTCA,0.0712
7,GGAGCTTA,0.0651
8,CAAATGCC,0.11
9,CCGAGCGA,0.403
10,GGGATAAC,0.0907
11,AAGACCCG,0.282
12,AATAGGCT,-0.175
13,CTAATTGC,0.0722
14,CAGCGCCC,-0.154
15,GGGTCTCA,8e-05
16,GTCGGCAA,0.368
17,CCTGTTGC,-0.154
18,ATACACGA,-0.09
19,AGACAGGC,-0.103
20,AAGGTCCT,-0.133
21,CATACATA,-0.216
22,AATCGAGT,-0.0955
